Data published in PubChem BioAssay AID624296 (National Center for Advancing Translational Sciences (NCATS), 2012).
About 9,900 (2.8%) of roughly 350,000 compounds were called active. The shares of active, inactive and inconclusive entries below differ from those in the screen. Calls come from the whole dose curve; as a rule, active = well fitted activation curve with a large enough effect; inconclusive = small, poorly fitted or top-dose-only effect; inactive = no such curve, though single readings can be large or run the other way. Potencies of inconclusive entries are left out as doubtful fits.

Assay: A quantitative high throughput screen for small molecules that induce DNA re-replication in MCF 10a normal breast cells. For activity, positive = re-replication: % of control where 0% means no effect. Note: nearly all actives have a fitted effect of over 50% in size.
Details: MCF 10A DNA re-replication, Hoechst nuclear intensity, 48 h; activity, positive = re-replication: at 46.1 µM (top of the series)
Potency is the fitted concentration of half-maximal effect; tags give direction and shape of the fitted curve.

Structure (SMILES)	Potency	activity, positive = re-replication
COc1cccc(-c2nnc(SCC(=O)N3CC(C)CC(C)C3)o2)c1 (stereo not drawn)	inconclusive [activator, partial curve, poor fit]	–
CCOc1ccc(-n2c(=O)c3c4c(sc3n(CC(=O)NCc3ccco3)c2=O)CCC4)cc1	–	inactive: 2.99%
O=C(NC(Cc1c[nH]c2ccccc12)C(=O)Nc1ccc(F)c([N+](=O)[O-])c1)c1cccs1 (stereo not drawn)	inconclusive [activator, single point]	–
C/C(=N\NC(=S)NCc1ccccc1)c1ccc(C(C)(C)C)cc1	inconclusive [activator, partial curve]	–
CCOC(=O)c1sc2ccc(S(=O)(=O)N3CCOCC3)cc2c1N	–	inactive: -2.01%
CC(=O)O[C@H]1CC[C@@]2(C)[C@@H](CC[C@H]3[C@@H]4CC[C@H](C(C)O)[C@@]4(C)CC(=O)[C@@H]32)C1 (stereo partly drawn)	inconclusive [activator, full curve, poor fit]	–
O=C(COC(=O)c1cc(S(=O)(=O)N2CCOCC2)ccc1F)c1ccccc1	inconclusive [activator, single point]	–
N=c1ccn(Cc2ccc(Cl)c(Cl)c2)cc1	–	inactive: 9.24%
COc1cc(C(=O)OCCc2cc3ccccc3c(=O)o2)cc(OC)c1OC	active: 14.6 µM	–
CCCn1c(SCC(=O)c2cc(C)n(C3CC3)c2C)n[nH]c1=O	inconclusive [activator, partial curve, poor fit]	–
COc1cccc(-c2c(C(=O)N/N=C/c3cccs3)nnn2-c2nonc2N)c1	inconclusive [activator, partial curve, poor fit]	–
CC1CN(S(=O)(=O)c2ccc(C(=O)Nc3nc(-c4cc5ccccc5o4)cs3)cc2)CC(C)O1 (stereo not drawn)	inconclusive [activator, full curve, poor fit]	–
N#CC1=C(SCC(=O)NC2CCCCC2)NC(=O)CC1c1ccco1 (stereo not drawn)	inconclusive [activator, single point]	–
COc1ccc(CN2CCCC(C(=O)c3ccc(Cl)cc3)C2)cc1Cn1cccn1 (stereo not drawn)	inconclusive [activator, partial curve, poor fit]	–
O=[N+]([O-])c1ccc(O)c(/C=N\N=C2c3ccccc3-c3ccccc32)c1	inconclusive [activator, partial curve, poor fit]	–
COc1cc2c(cc1NC(=O)C(C)OC(=O)C1CC(=O)N(Cc3ccco3)C1)oc1ccccc12 (stereo not drawn)	inconclusive [activator, partial curve, poor fit]	–
Cc1ccc(C)c(NC(=O)c2nc(-c3ccccc3)n(-c3ccccc3)n2)c1	inconclusive [activator, single point]	–
O=C(CCc1ccccc1)NN1C(=O)C2C3C=CC(O3)C2C1=O (stereo not drawn)	inconclusive [activator, single point]	–
Nc1c(C(=O)C2CC2)sc2nc(-c3ccccc3)cc(C(F)(F)F)c12	inconclusive [activator, partial curve, poor fit]	–

Structure (SMILES)	Potency	activity, positive = re-replication
COc1cc(CNc2ccc3[nH]c(=O)[nH]c3c2)cc(Br)c1OCc1ccccc1F	inconclusive [activator, partial curve, poor fit]	–
Cc1nc2nc(C)c(CCC(=O)N3CCc4ccccc43)c(C)n2n1	–	inactive: 1.88%
COc1ccc(/C=C/C(=O)c2ccncc2)c2ccccc12	active: 11.6 µM	–
Cc1cccc(Nc2ccccc2C(=O)OCC(=O)NCc2ccco2)c1C	inconclusive [activator, single point]	–
Cc1cc(NC(=O)CSc2nc3ccccc3c(=O)n2C(C)c2ccccc2)no1 (stereo not drawn)	inconclusive [activator, single point]	–
CCOC(=O)Cn1c(=O)oc2cc(S(=O)(=O)Nc3cc(OCC)ccc3OCC)ccc21	inconclusive [activator, single point]	–
COc1cccc([C@@H]2Oc3ccc(OC)cc3C(=O)[C@H]2O)c1	inconclusive [activator, single point]	–
COc1ccc(OC)c(Nc2nc(-c3sc(C)nc3C)cs2)c1	inconclusive [activator, single point]	–
S=c1c2[nH]cnc2ncn1CCSc1ncnc2nc[nH]c12	inconclusive [activator, partial curve]	–
CC(C)C[C@@H](CNCC(=O)[C@H](C)NC(=O)c1[nH]cnc1C(=O)N[C@H](CN)CC(C)C)NC(=O)c1nc[nH]c1C(=O)N[C@@H](C)C(=O)O	inconclusive [activator, single point]	–
O=S(=O)(c1ccc(SCCOc2ccccc2Cl)nc1)N1CCCC1	inconclusive [activator, full curve]	–
CCCc1cc(=O)oc2c(C)c(OCC(=O)NC3CC(C)(C)NC(C)(C)C3)ccc12	inconclusive [activator, partial curve, poor fit]	–
COc1cc(N=c2ssnc2Cl)cc(OC)c1	inconclusive [activator, single point]	–
O=C(CNC(=O)c1ccco1)OCc1c(F)cccc1Cl	inconclusive [activator, partial curve, poor fit]	–
Cc1ccc2nc(CSc3nnc(Nc4ccccc4C)s3)cc(=O)n2c1	inconclusive [activator, single point]	–
COc1ccc(NS(=O)(=O)c2cc(NS(=O)(=O)c3cccs3)ccc2C)cc1	inconclusive [activator, single point]	–
CCOc1ccc(-c2n[nH]c(C)c2Oc2ccc(OC)cc2)c(O)c1	inconclusive [activator, single point]	–
COCCSc1nc2c(c(=O)[nH]c(=O)n2C)n1CCCc1ccccc1	active: 1.46 µM	–
CSc1n[nH]c(/N=C/c2oc(O)c3ccccc23)n1	inconclusive [activator, single point]	–
